Data taken from PubChem BioAssay (NCATS).
Inconclusive means that the source gave no clear call. Such entries were picked first, then a sample of the others. No potency is given beside an inconclusive call; the fits are too rough. Active and inactive are the calls of the source. Calls come from the whole dose curve; as a rule, active = well fitted curve in the direction sought with a large enough effect; inconclusive = small, poorly fitted or top-dose-only effect, or another doubt; inactive = no such curve, though single readings can be large; an effect the other way counts as inactive or inconclusive.
Potency is the fitted concentration of half-maximal effect; tags give direction and shape of the fitted curve.

Assay: qHTS assay to identify small molecule inhibitors of chordoma cells - UCH-1 (AID 1259355); note: nearly all actives have a fitted effect of over 55% in size; for activity, negative = inhibition: % is set by controls: 0 for no effect and ±100 for the full control effect
Conditions: UCH-1 chordoma viability, CellTiter-Glo, 48 h, combination, with auranofin plus four topoisomerase inhibitors; series mostly up to 46.1 µM; activity, negative = inhibition: at the top concentration
Method in brief: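 800 cells/well, overnight attach; compounds pinned at 15 concs, then auranofin/camptothecin/doxorubicin/rubitecan/topotecan combo added; 48hr 37 C, 5% CO2; CellTiter-Glo, 30min RT, luminescence.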
For `COc1ccc2[nH]cc(CCNC(C)=O)c2c1`, the Potency was inconclusive [cytotoxic, full curve, poor fit]. In the case of `COc1ccc(CC2c3cc(OC)c(OC)cc3CC[N+]2(C)CCC(=O)OCCCCCOC(=O)CC[N+]2(C)CCc3cc(OC)c(OC)cc3C2Cc2ccc(OC)c(OC)c2)cc1OC` (stereo not drawn), the Potency is reported as inconclusive [cytotoxic, full curve, poor fit]. With `Cc1c(C(=O)NN2CCCCC2)nn(-c2ccc(Cl)cc2Cl)c1-c1ccc(Cl)cc1` the Potency was inconclusive [cytotoxic, single point]. In the case of `CCC(=O)O[C@]1(C(=O)CCl)[C@@H](C)C[C@H]2[C@@H]3CCC4=CC(=O)C=C[C@]4(C)[C@@]3(F)[C@@H](O)C[C@@]21C`, the Potency is reported as inconclusive [cytotoxic, full curve, poor fit]. With `Cc1cnc(NC(=O)C2=C(O)c3ccccc3S(=O)(=O)N2C)s1` the “activity, negative = inhibition” value was inactive: -5.99%. For `NC(=O)c1cccnc1`, the Potency was inconclusive [cytotoxic, single point]. With `Cc1cc(C(C)(C)C)cc(C)c1CC1=NCCN1` the Potency was inconclusive [cytotoxic, single point].

Assay: Identifying Small Molecule Inhibitors of Pancreatic Cancer Stem Cells (A2780, Spheroid) (AID 1259357);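 note: spheroids pre-formed over 14 days in stem cell medium on hydrogel; compound exposure lasted 48 h before the ATP luminescence read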;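 for viability (percent of control): 100% = DMSO treated cells and 0% = wells without cells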
Conditions: Potency: A2780 spheroid viability; viability (percent of control): at 46.1 µM (top of the series)
Method in brief: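 Adherent (2D) versus sphere (3D) formats; spheres generated 14 d in SCM beforehand. Compound transferred by pin tool after 4 h, 48 h incubation, CellTiter-Glo endpoint.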
With `Cc1cc(Nc2cc(N3CCN(C)CC3)nc(C=Cc3ccccc3)n2)n[nH]1` the viability (percent of control) was inconclusive: 97.6%. With `CC(C)C[C@H](NC(=O)c1cc2ccccc2s1)C(=O)N1CCN(C(=O)[C@H](CO)NS(=O)(=O)c2ccc(Cl)cc2Cl)CC1` the Potency was inconclusive [rising, full curve, poor fit]. For `Cn1cc(-c2[nH]c3cc(NC(=O)[C@H](N)C4CCCCC4)cc4c3c2C=NNC4=O)cn1`, the Potency was inconclusive [cytotoxic, partial curve, poor fit]. With `O=C1[C@H](Cc2ccc(O)cc2)N2C(=O)CCN(C(=O)NCc3ccccc3)[C@H]2CN1Cc1cccc2ccccc12` the Potency was inconclusive [cytotoxic, partial curve, poor fit]. For `Nc1ccccc1NC(=O)c1ccc(CNc2nccc(-c3cccnc3)n2)cc1`, the Potency was inconclusive [cytotoxic, full curve, poor fit]. In the case of `CC(C)CC(=O)Nc1n[nH]c2c1CN(C(=O)C1CCN(C)CC1)C2(C)C`, the Potency is reported as inconclusive [cytotoxic, full curve]. In the case of `COc1ccc(OC)c(-c2nnc3ccc(-c4ccc(OC)c(O[C@@H]5CCOC5)c4)nn23)c1`, the Potency is reported as inconclusive [cytotoxic, full curve, poor fit]. In the case of `Cc1ccc(NC(=O)c2ccc(CN3CCN(C)CC3)cc2)cc1Nc1nc(-c2cccnc2)cs1`, the “viability (percent of control)” value is reported as inactive: 95.4%. In the case of `C=CCn1c(=O)c2cnc(Nc3ccc(N4CCN(C)CC4)cc3)nc2n1-c1cccc(C(C)(C)O)n1`, the Potency is reported as inconclusive [cytotoxic, full curve, poor fit]. For `COc1cc(Nc2ncc3c(n2)-c2ccc(Cl)cc2C(c2c(F)cccc2OC)=NC3)ccc1C(=O)O`, the Potency was inconclusive [rising, full curve]. In the case of `COc1ccc(-c2ccc3c(N4CCOC[C@H]4C)nc(N4CCOC[C@H]4C)nc3n2)cc1CO`, the Potency is reported as active: 0.0187 µM.
